For 86 compounds, activation results are on record in PubChem BioAssay AID1645887 (National Center for Advancing Translational Sciences (NCATS), 2021).

SMILES strings stand for the structures. Several values for one entry are separate records, joined by “and”; a condition that tells them apart may be missing. Equal values may be shown once. The whole screen tested about 16,000 compounds, of which about 40 (0.2%) were called active. Inconclusive results (about 1%) are left out. Calls follow the shape of the dose curve; as a rule, active = well fitted activation curve with a large enough effect; inconclusive = small, poorly fitted or top-dose-only effect, or another doubt; inactive = no such curve, though single readings can be large or run the other way. This is one part of the list.
% is scaled to controls: 0 for no effect and ±100 for the full control effect.

In this experiment the target is Rap guanine nucleotide exchange factor 4 (Homo sapiens) (UniProt Q8WZA2). The experiment is described as follows: Validation qHTS for agonist of cAMP-regulated guanine nucleotide exchange factor 4 (EPAC2).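 Also: exchange makes BODIPY-GDP fluorescence drop when released from Rap1B; series mostly up to about 150 µM.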 To be noted: EPAC2 Rap1B BODIPY-GDP exchange, fluorescence; activation: stronger effect = higher value. In short, it runs like this: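 Fluorescent exchange assay: 100 nM EPAC2 with 250 nM RAP1B-BODIPY-GDP and 50 uM GDP; compound added, 5 min at room temperature, then read (ex 480/em 540 nm) every 5 min for 30 min. Normalized to 6.5 mM cAMP agonist control.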
Sequence of UniProt Q8WZA2 (Q8WZA2 whole entry, looked up): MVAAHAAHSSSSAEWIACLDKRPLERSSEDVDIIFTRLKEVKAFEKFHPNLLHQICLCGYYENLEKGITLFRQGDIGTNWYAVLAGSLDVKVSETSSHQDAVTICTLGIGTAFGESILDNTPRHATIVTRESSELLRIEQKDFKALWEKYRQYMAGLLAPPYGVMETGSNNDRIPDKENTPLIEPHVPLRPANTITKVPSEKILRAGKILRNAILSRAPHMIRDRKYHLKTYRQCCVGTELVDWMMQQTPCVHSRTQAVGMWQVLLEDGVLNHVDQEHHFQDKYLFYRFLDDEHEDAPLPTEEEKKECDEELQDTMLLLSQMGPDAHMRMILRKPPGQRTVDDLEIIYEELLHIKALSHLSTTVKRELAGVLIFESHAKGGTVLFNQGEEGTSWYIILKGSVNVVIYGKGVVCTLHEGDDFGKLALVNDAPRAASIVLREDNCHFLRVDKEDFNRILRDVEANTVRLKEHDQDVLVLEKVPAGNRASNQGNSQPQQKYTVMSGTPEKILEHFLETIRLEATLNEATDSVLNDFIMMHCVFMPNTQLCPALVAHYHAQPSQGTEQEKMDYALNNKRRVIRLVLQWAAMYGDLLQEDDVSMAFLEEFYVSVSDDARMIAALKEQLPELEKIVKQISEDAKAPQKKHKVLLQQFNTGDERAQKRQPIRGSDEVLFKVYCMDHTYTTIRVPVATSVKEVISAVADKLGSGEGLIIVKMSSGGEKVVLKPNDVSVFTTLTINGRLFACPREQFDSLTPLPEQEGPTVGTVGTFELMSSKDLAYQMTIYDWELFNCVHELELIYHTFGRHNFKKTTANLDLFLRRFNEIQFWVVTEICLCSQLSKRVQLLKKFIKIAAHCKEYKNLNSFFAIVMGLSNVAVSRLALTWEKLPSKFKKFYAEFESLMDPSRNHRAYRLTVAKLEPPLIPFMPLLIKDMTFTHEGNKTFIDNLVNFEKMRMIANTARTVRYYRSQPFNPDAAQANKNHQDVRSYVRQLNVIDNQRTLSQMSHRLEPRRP
(In general: Quantitative high-throughput screening tests each substance at several concentrations.)
As for `CC1(COc2ccc(C[C@H]3SC(=O)NC3=O)cc2)CCCCC1`, the activation is inactive: -43%.

With `COc1ccccc1C1CN(CCNC(=O)c2ccccc2Cl)Cc2ccccc2O1` (stereo unspecified), the activation was inactive: 0.445%. The value for `N[C@H](Cc1cnc[nH]1)C(=O)O` was inactive: -7.95% and inactive: 9.17%. To `CNc1ncncc1-c1ccccc1C(F)(F)F` belongs inactive: -9.61%; to `CCCCCCCCCC(=O)NO`, inactive: -16.4% and inactive: -13.9%. To `COc1ncc2nc(CCc3ccccc3)c(=O)n(-c3ccccc3)c2n1` belongs inactive: 2.24%; to `Clc1cccc(C=NC=Nc2cccc(Cl)c2)c1`, inactive: 2.17%.

For the compound `COc1cc(C2c3cc4c(cc3C(O)[C@H]3COC(=O)C23)OCO4)cc(OC)c1OC` (stereo partly specified), the activation is inactive: -8.25% and inactive: -8.94%.

In the case of `Cc1cc(=O)[nH]c(=S)[nH]1`, the activation is inactive: -2.9%. Turning to `COc1ccc(-c2nc3cc(C)ccc3cc2CN(C(=O)c2ccco2)C2CC2)cc1OC`, the activation is inactive: -3.44%. `O=C(c1cccc(F)c1)N1CCC[C@@]2(CCN(c3ccncc3)C2)C1`: the activation is inactive: -12.2%. To `COC(=O)C1C(=O)C(C(=O)/C=C/c2ccco2)C(=O)CC1(C)C` (stereo unspecified) belongs inactive: 9.01%; to `CC(=O)[C@@]1(O)CC[C@H]2[C@@H]3C=C(Cl)C4=CC(=O)CC[C@]4(C)[C@H]3CC[C@@]21C`, inactive: -11.5%; to `N[C@H](Cc1ccc(O)cc1)C(=O)O`, inactive: -7.07%. The value for `CC1(C)OC2C(CO)OC(n3cnc4c(=O)[nH]c(N)nc43)C2O1` (stereo unspecified) was inactive: -7.45%; that for `Brc1ccc(CN2CC[C@H]3C=CCc4cccc(c43)C2)cc1` was inactive: -38.4%. For the compound `COc1ccccc1-c1ccnc(-n2ncc(C(=O)N3CCN(C4CCCC4)CC3)c2-c2ccco2)n1`, the activation is inactive: 9.92%. Turning to `c1ccc(-c2cccc(N3CC[C@@]4(CCCNC4)C3)c2)cc1`, the activation is inactive: -14.8%. The value for `CC(C)NC(=O)N1CC2(CCN(S(=O)(=O)c3ccccc3)CC2)C1` was inactive: -6.99%; that for `Cc1ccc(CN2CCCOCCS2(=O)=O)cc1` was inactive: -2.32%; that for `CC(=O)c1ccc(F)c(-c2cc(C)cc3c2OC(CNC(=O)C2CCCCN2C)C3)c1` (stereo unspecified) was inactive: -14%.

`CS(=O)(=O)Nc1cccc(-c2ccc3ncnc(NC4CC4)c3c2)c1`: the activation was inactive: -17.4%. The value for `NC(=O)c1ccc2[nH]ccc2c1` was inactive: -21.4%; that for `COc1cc(=O)n2c(c1C(=O)NCc1ccco1)CCN(Cc1cccc(C(F)(F)F)c1)CC2` was inactive: -19.2%; that for `CSc1nnc(CNC(=O)/C=C/c2ccccc2Cl)n1-c1ccc(F)cc1` was inactive: -0.0505%. The value for `COc1ccc(OC)c(CN2CCCC(n3cc(C(=O)N4CCCCC4)nn3)C2)c1` (stereo unspecified) was inactive: 3.07%; that for `Oc1c(Cl)cc(Cl)c(Cl)c1Cc1c(O)c(Cl)cc(Cl)c1Cl` was inactive: 1.98% and inactive: 0.587%. With `Cc1c(N(C)C)c(=O)n(-c2ccccc2)n1C`, the activation is inactive: -6.66%. For the compound `CN(C)C(=O)c1ccc(-c2cncnc2Nc2ccccc2)cc1`, the activation is inactive: -6.77%. The value for `O=C(O)C(S)[C@@H](S)C(=O)O` (stereo partly specified) was inactive: -10.2%; that for `CCCCC[C@H](O)/C=C/C1=C(CCCCCCC(=O)O)C(=O)CC1` was inactive: -0.903%.

On to `COc1cccc(-c2nccc(NC3CCNCC3)n2)c1`, for which the activation was inactive: 0.711%.

Take `O=C(O)C[C@H]1c2cc(F)ccc2S(=O)(=O)N1C1CCCCC1`: the activation was inactive: -6.76%.

On to `CCCc1c(-c2ccc(O)cc2)nn(-c2ccc(O)cc2)c1-c1ccc(O)cc1`, for which the activation was inactive: -18.4% and inactive: 14.5%. The value for `COCCn1c(=O)c(-c2ccc(Cl)cc2)nc2cnc(OCc3ccccc3)nc21` was inactive: -16.7%; that for `COc1ccc(/C=C/C(=O)Nc2ccccc2C(=O)O)cc1OC` was inactive: -15.3% and inactive: -16.7%; that for `CCN(CC)CCNC(=O)c1c(C)[nH]c(/C=C2\C(=O)Nc3ccc(F)cc32)c1C` was inactive: -14.1%. The value for `COC(=O)[C@@H]1[C@@H]2C[C@H]3c4[nH]c5ccccc5c4CCN3C[C@@H]2CC[C@@H]1O` was inactive: -22.5% and inactive: -4.85%. As to `COc1cccc(Cn2c(=O)cnc3cnc(Nc4cccc(OC)c4)nc32)c1`, the activation was inactive: 16.5%. To `CSc1ncnc2c1ncn2C1OC(CO)C(O)C1O` (stereo unspecified) belongs inactive: -11.2%. On to `CC(C)(C)OC(=O)NS(=O)(=O)NOCc1ccccc1`, for which the activation was inactive: -9.26%. Turning to `COCC(=O)N1CCC[C@@]2(CCN(C(=O)Nc3cccc(C#N)c3)C2)C1`, the activation is inactive: -11.3%. To `C=C1C([C@@]2(C)C(OC(C)=O)CC(=O)O[C@@](C)(COC(C)=O)C2CC(=O)OC)C(OC=O)C(OC(=O)C(O)C(C)CC)[C@]2(C)C(c3ccoc3)CC(=O)C12O` (stereo partly specified) belongs inactive: -24%. The value for `COc1ccccc1C1CN(CC(=O)N2CCC(N3CCOCC3)CC2)Cc2ccccc2O1` (stereo unspecified) was inactive: -15.1%; that for `COc1cccc(-c2ccc3ncnc(NCc4cccnc4)c3c2)c1` was inactive: -11%. As to `CN1CC(O)c2cc(N=NC(N)=O)c(O)cc21` (stereo unspecified), the activation is inactive: -14.7%.

Turning to `FC(F)(F)c1cc(CN2CCC3(CCNCC3)CC2)cc(C(F)(F)F)c1`, the activation is inactive: -8.73%.

As for `OCC(O)COc1cccc2ccccc12` (stereo unspecified), the activation is inactive: 4.09%. To `Cc1cnc(C)c(-c2ccc(O)c(CN3CCN(C=O)CC3)c2)n1` belongs inactive: -13.6%. To `CN1CCN(c2nc(-c3cccc(NS(C)(=O)=O)c3)nc3ccccc23)CC1` belongs inactive: -13.1%; to `COc1cc2c(cc1OC)C1Cc3ccc(OC)c(OC)c3CN1CC2` (stereo unspecified), inactive: -10.7%; to `CCOC(=O)C1=C(COCCN)NC(C)=C(C(=O)OC)C1c1ccccc1Cl` (stereo unspecified), inactive: -20.7% and inactive: -9.83%. The value for `CC(=O)N1CCCC1C(=O)O` (stereo unspecified) was inactive: 14.1%; that for `CCCCCCCCCCCCCCC(C(=O)O)C(O)(CC(=O)OC)C(=O)O` (stereo unspecified) was inactive: -39.4%.

Consider `COc1ccccc1N1CCN(CCN2C(=O)c3ccccc3C(C)(C)C2=O)CC1`, for which the activation was inactive: 4.03% and inactive: -13.2%. The value for `COc1ccc(CN2[C@@H](CC(=O)O)c3ccccc3S2(=O)=O)cc1` was inactive: -5.97%. In the case of `COc1ccc(-c2nc3cnc(N4CCOCC4)nc3n(Cc3cccs3)c2=O)cc1`, the activation was inactive: -9.12%. The value for `O=C(O)c1ccc(OCCCOc2ccc(C(=O)O)cc2)cc1` was inactive: 1.74%; that for `CC(=O)O[C@H]1CC[C@@]2(C)C(=CC[C@@H]3[C@@H]2CC[C@]2(C)C(c4cccnc4)=CC[C@@H]32)C1` was inactive: -12.6%; that for `Cc1cccc(C)c1NC(=O)CC12CCCN1CCC2` was inactive: 0.0064%. To `CCc1cc(C(=O)NCC2Cc3cc(-c4ccccc4C(C)=O)ccc3O2)no1` (stereo unspecified) belongs inactive: -13.3%. With `COc1ccc(C(=O)N2CCC3(CC2)CN(c2ccncc2)C3)cc1`, the activation was inactive: 3.62%. `Cc1ccc2ccccc2[n+]1CCCCI`: the activation is inactive: -12.7%.

On to `O=C(c1ccccc1)c1ccc(Cn2cc(-c3ccccc3)nn2)cc1`, for which the activation is inactive: -12.6%. To `COc1cccc(CNC(=O)c2cnn(-c3ncc4c(n3)-c3ccccc3CCC4)c2C)c1OC` belongs inactive: -8.82%; to `O=C(c1ccccc1C(F)(F)F)N1CCOc2c(cc(-c3nc4ccccc4s3)cc2OC2CCOC2)C1` (stereo unspecified), inactive: 2.52%; to `O=C(Nc1ccccc1)N1CCCC2(CCN(C(=O)c3ccco3)CC2)C1`, inactive: 2.47%.

Take `COc1ccccc1N1CCN(c2nc(CNC(=O)C3CCOC(C)(C)C3)nc3ccccc23)CC1` (stereo unspecified): the activation is inactive: -25.8%. With `NCC1OC(O[C@H]2[C@H](O)[C@@H](OC3C(O)C(N)CC(N)C3OC3OC(CO)C(O)C(O)C3N)O[C@@H]2CO)C(N)C(O)C1O` (stereo partly specified), the activation is inactive: -10%. Consider `COc1cc(=O)n2c(c1C(=O)NC(C)c1ccco1)CCN(CC=C(C)C)CC2` (stereo unspecified), for which the activation is inactive: 2.32%. The value for `COc1cccc(Cn2c(=O)c(-c3cccs3)nc3cncnc32)c1` was inactive: 13.3%; that for `c1nc(N2CCOCC2)c2cc(-c3ccoc3)ccc2n1` was inactive: -7.91%.

Consider `CC[N+](CC)(CC)CCOc1ccc(/C=C/c2ccccc2)cc1`, for which the activation is inactive: 5.25% and inactive: 12.2%.

Consider `Cc1ccccc1C(=O)Nc1ccc(C(=O)N2CCCC(O)c3cc(Cl)ccc32)c(C)c1` (stereo unspecified), for which the activation was inactive: 12.6%. Regarding `N#Cc1cccc(NC(=O)N2CCCC3(CCN(C(=O)c4ccncc4)CC3)C2)c1`, the activation was inactive: -9.21%. To `COc1ccc(CNc2ncnc3ccc(-c4c(C)noc4C)cc23)c(OC)c1` belongs inactive: 7.65%; to `FC(F)(F)c1ccccc1-c1cncnc1NCCc1cnc[nH]1`, inactive: -13.9%; to `COC(=O)c1cc(CNC(=O)c2ccc3ccccc3n2)cc(NC(=O)c2cccc(OC)c2)c1`, inactive: -22.2%. To `COc1ccc(NC(=O)[C@@H]2CC=C[C@@H]3CCN(Cc4ccccc4)C(=O)[C@@H]32)cc1` belongs inactive: -25.6%; to `COc1ccc(CNc2ncnc3ccc(-c4cccc(C#N)c4)cc23)c(OC)c1`, inactive: 4.8%. To `Cc1cn(C2OC[C@@H](O)[C@@H]2CO)c(=O)[nH]c1=O` (stereo partly specified) belongs inactive: -12.8%. Turning to `C=C1C(CCl)(CCl)C2(Cl)C(Cl)C(Cl)C1(Cl)C2(Cl)Cl` (stereo unspecified), the activation is inactive: -5%.

For `CC(C)c1cc2c(cc1S(=O)(=O)O)[C@@]1(C)CCC[C@@](C)(C(=O)O)[C@@H]1CC2`, the activation is inactive: -16.8%.

In the case of `CC(C)CN1CCC(=O)N([C@H](CN=[N+]=[N-])Cc2ccccc2)CC1`, the activation is inactive: -31.8%. To `CC(C)c1c(O)ccc2c1CCC1[C@@](C)(C=O)CCC[C@@]21C` (stereo partly specified) belongs inactive: 22.5%. To `CO/N=C(\C(=O)N[C@@H]1C(=O)N2C(C(=O)O)=C(CSc3nnnn3C)CS[C@H]12)c1csc(N)n1` belongs inactive: -18.3%.
